# Data published in PubChem BioAssay AID488895 (Broad Institute, 2010).
# About 120 (0.035%) of roughly 340,000 compounds were called active. The shares of active, inactive and inconclusive entries below differ from those in the screen.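 Rule for the calls: active = mean replicate inhibition at least 50% and at least half of replicates individually reaching 50%; inconclusive = only one of the two criteria met; inactive = neither criterion met.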
# Test: E. coli Tat export inhibitors, primary screen, MC4100, TorA-mCherry reporter, fluorescence, single point (AID 488895);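 note: exported cargo escapes ClpAP degradation while cytoplasmic cargo is degraded and loses fluorescence; 0% = median of neutral control wells and 100% = median of NaSCN control wells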
# Conditions: at 10 µM, hits give high values
row,SMILES,inhibition
1,Cc1ccc(-c2oc3ccccc3c(=O)c2O)cc1,inactive: 6.01%
2,O=C1c2ccccc2C(=O)c2c(Nc3ccc(CCO)cc3)ccc(O)c21,inactive: -4.35%
3,O=C(Cn1cc(C(F)(F)F)ccc1=O)OCC(=O)c1ccc[nH]1,inconclusive: 22.7%
4,CC[C@H]1OC(=O)[C@H](C)[C@@H](O[C@H]2C[C@@](C)(OC)[C@@H](O)[C@H](C)O2)[C@H](C)[C@@H](O[C@@H]2O[C@H](C)C[C@H](N(C)C)[C@H]2O)[C@](C)(O)C[C@@H](C)CN(C)[C@H](C)[C@@H](O)[C@]1(C)O,active: 121%
5,O=C(NNc1ncnc2c1cnn2-c1ccccc1)c1cccs1,inconclusive: 18.2%
6,C#CCOCCOCCOCCNc1nc(N2CCN(C(=O)[C@H](C(C)C)n3cc(CCO)nn3)CC2)nc(N2CCN(C(=O)[C@H]([C@@H](C)CC)n3cc(CCC(=O)O)nn3)CC2)n1,inconclusive: 41.1%
7,Cc1ccc(NC(=O)c2ccc([N+](=O)[O-])o2)cc1C,inactive: -17.9%
8,Cc1cc(C(=O)OCC(=O)Nc2ccc(F)cc2)c(C)o1,inactive: -0.416%
9,O=C(Nc1ccc2c(c1)OCCO2)N1CCN(c2ccc(F)cc2)CC1,inconclusive: 29.6%
10,C#CCOCCOCCOCCNc1nc(N2CCOCC2)nc(N2CCN(C(=O)[C@H](CCCCN)n3cc([C@@H](N)CC(C)C)nn3)CC2)n1,inconclusive: 28.3%
11,O=C(O)c1ccccc1-c1nc2ccccc2c(=O)n1O,inconclusive: 25.5%
12,COc1ccc(-c2csc(NC(=O)C3COc4ccccc4O3)n2)cc1OC (stereo unspecified),inconclusive: 31.8%
13,CCOC(=O)CSc1cc(CS(C)(=O)=O)nc(-c2ccccn2)n1,inconclusive: 33.2%
14,CCN(CC)c1ccc(/C=C2/SC(=O)N(C(C)C)C2=O)o1,inactive: -2.92%
15,COc1ccc(S(=O)(=O)N2CCN(CC(=O)Nc3c(C)n[nH]c3C)CC2)cc1OC,inconclusive: 24%
16,O=C(CSc1ccc(-c2ccccn2)nn1)c1ccc([N+](=O)[O-])cc1,inactive: -4.34%
17,O=c1cc(CSc2ccc([N+](=O)[O-])cc2)nc2sccn12,inactive: -9.99%
18,CCOCCCn1c(SC(C(=O)Nc2cc(C)ccc2C)c2ccccc2)nnc1-c1ccc(Cl)cc1 (stereo unspecified),inactive: -3.33%
19,CO[C@H]1C=CO[C@@]2(C)Oc3c(C)c(O)c4c(O)c(c(C=NN5CCN(C)CC5)c(O)c4c3C2=O)NC(=O)C(C)=CC=C[C@H](C)[C@H](O)[C@@H](C)[C@@H](O)[C@@H](C)[C@H](OC(C)=O)[C@@H]1C,active: 75%
20,CCN1/C(=C/c2cc[n+](CCCS(=O)(=O)[O-])c3ccccc23)Sc2ccccc21,inactive: -1.85%
21,CN(c1ccccc1)S(=O)(=O)c1cccc(NC(=O)CN2C(=O)NC3(CCCC3)C2=O)c1,inconclusive: 32.3%
22,COc1ccc(/C=C2/CCCC(CN(C)C)C2=O)cc1 (stereo unspecified),inactive: -15.3%
23,COc1cccc(NC(=O)c2ccc3c(SCC(=O)O)c4c(nc3c2)CCCC4)c1,inconclusive: 24.3%
24,CCNC(=S)NCCN1CCOCC1,inconclusive: 36.1%
25,CCc1ccc2c(CSc3nnnn3C)cc(=O)oc2c1,inconclusive: 35.5%
26,Cc1cc(NC(=O)c2ccc([N+](=O)[O-])cc2)n(C)n1,inconclusive: 24.7%

row,SMILES,inhibition
1,Cc1ccc(OCCC(=O)OCC(=O)Nc2ccc(F)cc2)cc1,inactive: -12.6%
2,Cc1ccc(C(=O)N/C(=C\c2ccc(C(C)C)cc2)C(=O)NCCCN2CCOCC2)cc1,inconclusive: 31.4%
3,Cc1nc(SCc2ccc(C(=O)O)cc2)c2c(C)c(C)sc2n1,inconclusive: 23.6%
4,Cn1ccnc1SCC(=O)c1ccc(O)cc1,inactive: 3.8%
5,Oc1c(C(c2ccccn2)N2CCCCC2)cc(Cl)c2cccnc12 (stereo unspecified),inactive: -1.55%
6,COc1ccc(Cl)cc1NC(=S)NCc1cccnc1,inconclusive: 21.3%
7,Cc1noc(NS(=O)(=O)c2ccc(NC(=O)c3ccoc3C)cc2)c1C,inconclusive: 28.8%
8,CO[C@@]12[C@@H]3N[C@@H]3CN1C1=C(C(=O)C(N)=C(C)C1=O)[C@@H]2COC(N)=O,active: 67.3%
9,CCCCn1c(N)c(N(CC)C(=O)c2ccc(Cl)c(Cl)c2)c(=O)[nH]c1=O,inconclusive: 34.3%
10,CCc1cc2c(=O)n(C(C)C(=O)OC3CCCCC3)cnc2s1 (stereo unspecified),inconclusive: 25%
11,CC(C)Nc1ccc(Nc2ccnc3cc4ccccc4cc23)cc1,inactive: -1.37%
12,CN1CC(c2ccccc2Cl)C2(COc3ccccc3C2=O)C12C(=O)Nc1ccccc12 (stereo unspecified),inconclusive: 23.7%
13,NC(=O)c1c(NC(=O)c2ccc([N+](=O)[O-])o2)sc2c1CCCC2,inactive: 2.86%
14,Cc1onc(-c2ccccc2)c1C(=O)N/N=C(\N)COc1ccc(Cl)cc1,inactive: -2.64%
15,Cc1nc2c(sc(=S)n2Cc2ccco2)c(=O)n1CC(=O)Nc1ccccc1Cl,inconclusive: 43.3%
16,Cc1[nH]n(C(N)=S)c(=O)c1N=Nc1ccc(S(=O)(=O)N2CCCCCC2)cc1,inconclusive: 20.6%
17,COc1ccc(CNC(=S)Nc2cccc(C)c2)cc1,inactive: -4.09%
18,Cc1ccc(C(C[N+](=O)[O-])c2c(N)n(C)c(=O)n(C)c2=O)cc1 (stereo unspecified),inactive: -27.2%
19,CC1CCN(S(=O)(=O)c2ccc3c(c2)C(=NO)c2cc(S(=O)(=O)N4CCC(C)CC4)ccc2-3)CC1,inactive: -3.25%
20,Cc1nn(-c2ccccc2)c(C)c1NC(=O)COC(=O)c1ccc(Cl)c(S(N)(=O)=O)c1,inconclusive: 26.8%
21,CN1C2CCC1CC(NS(=O)(=O)c1cc(Cl)c(Cl)cc1Cl)C2 (stereo unspecified),inconclusive: 29.1%
22,COCCNC(=O)c1c[nH]c2ccc(S(=O)(=O)N3CCc4ccccc43)cc2c1=O,inconclusive: 14.3%
23,COC(=O)c1sccc1NC(=O)c1ccc2c(c1)OCO2,inconclusive: 22.8%
24,Nc1nnc(-c2cn(-c3ccccc3)nc2-c2ccc(Cl)cc2)o1,inconclusive: 32.2%
25,O=S(=O)(/N=C(/Nc1ccccc1)c1ccccc1)c1cccs1,inconclusive: 24.2%
